The record followed here is the supplement of paper PMC10369915.

This is one part of the list. Cut-off read from the data, not from the text of the source: active = 3.2 or more and inactive = the rest. Most of these values are background signal.
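Note: displayed peptides selected on beads carrying the immobilized SH2 domain, with library peptides lacking any tyrosine serving as negative controls.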

One experiment deals with SHP2 C-SH2 domain E139D. In words: enrichment score (SH2-bound / input frequency) (ratio); bacterial display of known human phosphotyrosine sites (pTyr-Var adds point mutants) read by sequencing; higher = stronger binding; tyrosines were phosphorylated by kinases first. The following applies: peptide library: pTyr-Var.
As to KYVKMCDNHQL [MYO9A_Y203_Y203C], the enrichment score is inactive: 0.925.

For the molecule IKELTYQMEED [MYH7_Y1852_T1854M], the enrichment score is inactive: 0.61.

Take SKEPYYVRCIK [MYO1D_Y586]: the enrichment score was inactive: 0.723.

Consider ASKEPYFVHCI [MYO1D_Y585_R588H_YF], for which the enrichment score is inactive: 0.819.

Regarding FRSSLYSLMET [MYO5C_Y633_L634S], the enrichment score is inactive: 1.18.

As for ARIVDYNIIGW [MYH7_Y588_G584R], the enrichment score is inactive: 0.822.

As for PFQGAYLEINK [MYO1B_Y967], the enrichment score was inactive: 1.08.

In the case of VQQVIYATGAL [MYH7_Y422], the enrichment score was inactive: 1.03.

GTYEDYVEGLR [MYL6_Y89]: the enrichment score was inactive: 0.843.

Regarding ASKEPYYVRCI [MYO1D_Y585], the enrichment score was inactive: 0.723.

Take GVLDIYGFEIL [MYO1A_Y382]: the enrichment score is inactive: 0.94.

As to SGKSEYLLPVA [MYLK_Y611_R607G], the enrichment score was inactive: 0.811.

Take ISDNAYQYMLT [MYH7_Y162]: the enrichment score was inactive: 1.14.

With ASKEPYFVRCI [MYO1D_Y585_YF], the enrichment score was inactive: 0.652.

Regarding EVDGLYREAPI [MYL12B_Y143_E141G], the enrichment score is inactive: 0.614.

Turning to MPPHIYAITDT [MYH9_Y151], the enrichment score was inactive: 1.19.

Consider LEPHIYAVADV [MYO9A_Y216], for which the enrichment score was inactive: 0.825.

As for HNLYSYPTKHE [MYO3A_Y1396], the enrichment score is inactive: 1.12.

Take VQQVIYATRAL [MYH7_Y422_G425R]: the enrichment score was inactive: 1.

Another experiment has as its target SHP2 C-SH2 domain wild-type. The experiment is described as above. As to conditions: peptide library: pTyr-Var.
In the case of KYVKMCDNHQL [MYO9A_Y203_Y203C], the enrichment score is inactive: 0.827.

Consider IKELTYQMEED [MYH7_Y1852_T1854M], for which the enrichment score was inactive: 0.731.

For the molecule SKEPYYVRCIK [MYO1D_Y586], the enrichment score was inactive: 1.

For ASKEPYFVHCI [MYO1D_Y585_R588H_YF], the enrichment score is inactive: 0.89.

Turning to FRSSLYSLMET [MYO5C_Y633_L634S], the enrichment score was inactive: 0.995.

As for ARIVDYNIIGW [MYH7_Y588_G584R], the enrichment score is inactive: 0.815.

As to PFQGAYLEINK [MYO1B_Y967], the enrichment score is inactive: 1.01.

With VQQVIYATGAL [MYH7_Y422], the enrichment score was inactive: 0.98.

For GTYEDYVEGLR [MYL6_Y89], the enrichment score is inactive: 0.681.

As for ASKEPYYVRCI [MYO1D_Y585], the enrichment score was inactive: 0.885.

Take GVLDIYGFEIL [MYO1A_Y382]: the enrichment score is inactive: 0.907.

SGKSEYLLPVA [MYLK_Y611_R607G]: the enrichment score was inactive: 0.726.

Turning to ISDNAYQYMLT [MYH7_Y162], the enrichment score is inactive: 1.13.

Turning to ASKEPYFVRCI [MYO1D_Y585_YF], the enrichment score was inactive: 0.653.

For EVDGLYREAPI [MYL12B_Y143_E141G], the enrichment score was inactive: 0.491.

As to MPPHIYAITDT [MYH9_Y151], the enrichment score was inactive: 0.855.

As to LEPHIYAVADV [MYO9A_Y216], the enrichment score is inactive: 0.881.

For HNLYSYPTKHE [MYO3A_Y1396], the enrichment score was inactive: 1.76.

Take VQQVIYATRAL [MYH7_Y422_G425R]: the enrichment score was inactive: 1.08.

The target of another experiment is SHP2 N-SH2 domain L43F. Described as above. The following applies: peptide library: pTyr-Var.
As to KYVKMCDNHQL [MYO9A_Y203_Y203C], the enrichment score was inactive: 0.944.

Consider IKELTYQMEED [MYH7_Y1852_T1854M], for which the enrichment score was inactive: 0.647.

As to SKEPYYVRCIK [MYO1D_Y586], the enrichment score was inactive: 0.732.

ASKEPYFVHCI [MYO1D_Y585_R588H_YF]: the enrichment score was inactive: 0.823.

Take FRSSLYSLMET [MYO5C_Y633_L634S]: the enrichment score was inactive: 1.15.

For the molecule ARIVDYNIIGW [MYH7_Y588_G584R], the enrichment score was inactive: 0.642.

PFQGAYLEINK [MYO1B_Y967]: the enrichment score is inactive: 1.28.

Turning to VQQVIYATGAL [MYH7_Y422], the enrichment score is inactive: 0.931.

Turning to GTYEDYVEGLR [MYL6_Y89], the enrichment score is inactive: 0.832.

ASKEPYYVRCI [MYO1D_Y585]: the enrichment score was inactive: 0.686.

With GVLDIYGFEIL [MYO1A_Y382], the enrichment score is inactive: 0.903.

As for SGKSEYLLPVA [MYLK_Y611_R607G], the enrichment score is inactive: 0.773.

Take ISDNAYQYMLT [MYH7_Y162]: the enrichment score is inactive: 0.919.

For the molecule ASKEPYFVRCI [MYO1D_Y585_YF], the enrichment score is inactive: 0.721.

For the molecule EVDGLYREAPI [MYL12B_Y143_E141G], the enrichment score is inactive: 0.536.

Consider MPPHIYAITDT [MYH9_Y151], for which the enrichment score was inactive: 1.1.

Take LEPHIYAVADV [MYO9A_Y216]: the enrichment score is inactive: 0.76.

In the case of HNLYSYPTKHE [MYO3A_Y1396], the enrichment score is inactive: 1.07.

Turning to VQQVIYATRAL [MYH7_Y422_G425R], the enrichment score was inactive: 1.2.

The target in a further experiment is SHP2 N-SH2 domain T42A. Described as above. As to conditions: peptide library: pTyr-Var.
Take KYVKMCDNHQL [MYO9A_Y203_Y203C]: the enrichment score was inactive: 0.736.

As to IKELTYQMEED [MYH7_Y1852_T1854M], the enrichment score is inactive: 0.647.

In the case of SKEPYYVRCIK [MYO1D_Y586], the enrichment score is inactive: 0.749.

On to ASKEPYFVHCI [MYO1D_Y585_R588H_YF], for which the enrichment score was inactive: 0.817.

Regarding FRSSLYSLMET [MYO5C_Y633_L634S], the enrichment score is inactive: 1.81.

Regarding ARIVDYNIIGW [MYH7_Y588_G584R], the enrichment score was inactive: 0.874.

Take PFQGAYLEINK [MYO1B_Y967]: the enrichment score was inactive: 1.92.

As for VQQVIYATGAL [MYH7_Y422], the enrichment score was inactive: 0.835.

For GTYEDYVEGLR [MYL6_Y89], the enrichment score is inactive: 0.622.

In the case of ASKEPYYVRCI [MYO1D_Y585], the enrichment score is inactive: 0.792.

For the molecule GVLDIYGFEIL [MYO1A_Y382], the enrichment score was inactive: 0.82.

Take SGKSEYLLPVA [MYLK_Y611_R607G]: the enrichment score was inactive: 0.765.

With ISDNAYQYMLT [MYH7_Y162], the enrichment score was inactive: 1.02.

ASKEPYFVRCI [MYO1D_Y585_YF]: the enrichment score was inactive: 0.589.

In the case of EVDGLYREAPI [MYL12B_Y143_E141G], the enrichment score was inactive: 0.466.

MPPHIYAITDT [MYH9_Y151]: the enrichment score is inactive: 1.26.

With LEPHIYAVADV [MYO9A_Y216], the enrichment score is inactive: 0.871.

On to HNLYSYPTKHE [MYO3A_Y1396], for which the enrichment score is inactive: 1.18.

For VQQVIYATRAL [MYH7_Y422_G425R], the enrichment score is inactive: 0.843.

The target in the next experiment is SHP2 N-SH2 domain T52S. Described as above. The following applies: peptide library: pTyr-Var.
For the molecule KYVKMCDNHQL [MYO9A_Y203_Y203C], the enrichment score was inactive: 0.972.

Take IKELTYQMEED [MYH7_Y1852_T1854M]: the enrichment score was inactive: 0.651.

Turning to SKEPYYVRCIK [MYO1D_Y586], the enrichment score is inactive: 0.615.

In the case of ASKEPYFVHCI [MYO1D_Y585_R588H_YF], the enrichment score was inactive: 0.76.

Turning to FRSSLYSLMET [MYO5C_Y633_L634S], the enrichment score was inactive: 1.18.

In the case of ARIVDYNIIGW [MYH7_Y588_G584R], the enrichment score is inactive: 0.712.

PFQGAYLEINK [MYO1B_Y967]: the enrichment score is inactive: 1.

Turning to VQQVIYATGAL [MYH7_Y422], the enrichment score is inactive: 0.922.

With GTYEDYVEGLR [MYL6_Y89], the enrichment score is inactive: 0.556.

As for ASKEPYYVRCI [MYO1D_Y585], the enrichment score is inactive: 0.584.

In the case of GVLDIYGFEIL [MYO1A_Y382], the enrichment score is inactive: 0.952.

As to SGKSEYLLPVA [MYLK_Y611_R607G], the enrichment score was inactive: 0.726.

ISDNAYQYMLT [MYH7_Y162]: the enrichment score is inactive: 0.875.

Take ASKEPYFVRCI [MYO1D_Y585_YF]: the enrichment score was inactive: 0.672.

On to EVDGLYREAPI [MYL12B_Y143_E141G], for which the enrichment score was inactive: 0.515.

Regarding MPPHIYAITDT [MYH9_Y151], the enrichment score is inactive: 1.1.

Consider LEPHIYAVADV [MYO9A_Y216], for which the enrichment score was inactive: 0.759.

Regarding HNLYSYPTKHE [MYO3A_Y1396], the enrichment score is inactive: 1.06.

With VQQVIYATRAL [MYH7_Y422_G425R], the enrichment score was inactive: 0.992.

The next experiment addresses SHP2 N-SH2 domain wild-type. The experiment is described as above. The following applies: peptide library: pTyr-Var.
As for KYVKMCDNHQL [MYO9A_Y203_Y203C], the enrichment score is inactive: 0.86.

With IKELTYQMEED [MYH7_Y1852_T1854M], the enrichment score is inactive: 0.906.

For SKEPYYVRCIK [MYO1D_Y586], the enrichment score was inactive: 0.882.

Take ASKEPYFVHCI [MYO1D_Y585_R588H_YF]: the enrichment score was inactive: 0.796.

Turning to FRSSLYSLMET [MYO5C_Y633_L634S], the enrichment score is inactive: 0.978.

Take ARIVDYNIIGW [MYH7_Y588_G584R]: the enrichment score is inactive: 0.888.

For PFQGAYLEINK [MYO1B_Y967], the enrichment score is inactive: 1.12.

For the molecule VQQVIYATGAL [MYH7_Y422], the enrichment score is inactive: 1.15.

Take GTYEDYVEGLR [MYL6_Y89]: the enrichment score was inactive: 0.678.

As for ASKEPYYVRCI [MYO1D_Y585], the enrichment score is inactive: 0.841.

GVLDIYGFEIL [MYO1A_Y382]: the enrichment score was inactive: 1.33.

In the case of SGKSEYLLPVA [MYLK_Y611_R607G], the enrichment score is inactive: 0.74.

Regarding ISDNAYQYMLT [MYH7_Y162], the enrichment score is inactive: 0.696.

Consider ASKEPYFVRCI [MYO1D_Y585_YF], for which the enrichment score was inactive: 1.07.

As to EVDGLYREAPI [MYL12B_Y143_E141G], the enrichment score is inactive: 0.583.

For MPPHIYAITDT [MYH9_Y151], the enrichment score was inactive: 0.992.

Turning to LEPHIYAVADV [MYO9A_Y216], the enrichment score was inactive: 1.

Regarding HNLYSYPTKHE [MYO3A_Y1396], the enrichment score is inactive: 1.57.

In the case of VQQVIYATRAL [MYH7_Y422_G425R], the enrichment score is inactive: 0.919.
